Among all 420,000 compounds or so, about 50,000 (12%) were called active. The shares of active, inactive and inconclusive entries below differ from those in the screen. The call rests on the fitted dose curve; in most records, active means well fitted inhibition curve with a large enough effect; inconclusive means small, poorly fitted or top-dose-only effect; inactive means flat fitted curve, though single readings scatter. Potencies of inconclusive entries are doubtful fits and often do not repeat.
Test: qHTS for Inhibitors of human tyrosyl-DNA phosphodiesterase 1 (TDP1): qHTS in cells in presence of CPT; further: nearly all actives have a fitted effect of over 55% in size
Conditions: chicken DT40 Tdp1-/-;hTDP1 cells + 20 nM CPT, ATP luminescence, 48 h
Summary of the method: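 Chicken DT40 Tdp1-/- cells stably complemented with human TDP1 were seeded at 400 cells/well in medium containing 20 nM camptothecin, exposed to pin-transferred compounds, and grown at 37 °C for at least 48 hr. Viability was read as ATP luminescence.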

[1] = activity change, negative = growth inhibition: at 46.2 µM (top of the series) unless noted
On the % scale 0 is the no-effect control and ±100 the full control effect; potency means the concentration at half of the fitted maximal effect; tags describe the fitted curve by direction and shape.

## Cc1ccc(-n2nnc(C(=O)Nc3cc(F)ccc3F)c2C)cc1F
[1]
  Potency: inactive

## C=C1C[C@]23CC[C@H]4C(CO)(CO)C[C@@H](O)C[C@@]4(C)[C@@H]2CC[C@H]1C3
[1]
  activity change, negative = growth inhibition: inconclusive: -13.6% [inhibitor] [at 9.04 µM]

## Cn1c(=O)[nH]c(=O)c2c1nc(N1CCNCC1)n2Cc1cccc2ccccc12
[1]
  Potency: inconclusive: 29.1 µM [inhibitor, single point]

## COc1ccc(NC(=O)N2C[C@H]3CON(C)[C@H]3C[C@H]2c2ccc(N3CCCCC3)cc2)cc1
[1]
  Potency: inactive

## O=C(c1cnn2c(C(F)(F)F)cc(-c3ccc(F)cc3)nc12)N1CCc2ccccc2C1
[1]
  Potency: inconclusive: 23.1 µM [inhibitor, single point]

## Cc1nn(-c2ccc(N3CCOCC3)nn2)c(C)c1CCC(=O)NCc1ccc(F)cc1
[1]
  activity change, negative = growth inhibition: inconclusive: -33.3% [inhibitor]
At 46.2 µM (top of the series)
  activity change, negative = growth inhibition: inactive: -13.6%

## O=C(CCC(=O)OCC(F)(F)C(F)F)NCc1ccccc1
[1]
  activity change, negative = growth inhibition: inconclusive: -26.5% [inhibitor]

## Cc1ccccc1C(=O)Nc1cc(-c2ccc(Cl)cc2)nn1-c1ccccc1
[1]
  activity change, negative = growth inhibition: inconclusive: -32.2% [inhibitor]

## Cc1cccc(N2CCN(C(=O)CCS(=O)(=O)c3ccc(Br)cc3)CC2C)c1 (stereo not given)
[1]
  Potency: inconclusive: 18.4 µM [inhibitor, single point]

## Cc1ccc2c(c1)C(c1ccc(F)cc1)N(C(=O)c1ccc(OC(C)C)cc1)CC(=O)N2 (stereo not given)
[1]
  Potency: inconclusive: 23.1 µM [inhibitor, single point]

## NS(=O)(=O)c1ccc(NS(=O)(=O)c2ccc3c(c2)OCCO3)cc1
[1]
  Potency: inconclusive: 23.1 µM [inhibitor, single point]

## COc1cc2[nH]c(=O)n(CCCC(=O)N3CCN(c4cccc(C(F)(F)F)c4)CC3)c(=O)c2cc1OC
[1]
  Potency: active: 4.61 µM

## COc1ccccc1NC(=O)/C=C/C(=O)O
[1]
  activity change, negative = growth inhibition: inconclusive: -11.6% [inhibitor]

## Cc1c(C(=O)NC2CCCCCC2)sc2ncnc(NCC3CCCO3)c12 (stereo not given)
[1]
  activity change, negative = growth inhibition: inactive: -4.03% [at 9.04 µM]

## O=C1CC(=C(c2ccccc2)c2ccccc2)C(=O)N1CCCN1CCN(c2cccc(Cl)c2)CC1
[1]
  Potency: inconclusive: 29.1 µM [inhibitor, single point]

## C/C(=C/C(=O)Nc1cccc(F)c1)N1CCCC1
[1]
  Potency: inactive

## CC(NC(=O)c1sc2cc([N+](=O)[O-])ccc2c1Cl)C(C)(C)C (stereo not given)
[1]
  Potency: active: 5.17 µM

## CCN1CCN(P2(=O)C=C(c3ccccc3)OC(c3ccccc3)=C2)CC1
[1]
  Potency: inactive

## CCOc1ccc(CN(C)CC(=O)NNC(=O)c2ccc(Cl)cc2)cc1OC
[1]
  Potency: inconclusive: 16.4 µM [inhibitor, partial curve]

## COc1ccc(CCNC(=O)c2ccc(CNS(=O)(=O)c3cc(C)ccc3C)cc2)cc1OC
[1]
  Potency: inconclusive: 29.1 µM [inhibitor, single point]

## Cn1ncc2nc(SCC(=O)Nc3ccc(Br)cc3F)n(Cc3ccccc3)c(=O)c21
[1]
  Potency: inconclusive: 18.4 µM [inhibitor, single point]

## Cc1ccn2c(=O)cc(COc3ccc(NC(=O)c4ccccc4F)cc3)nc2c1
[1]
  Potency: inactive

## CC(C)(C)OC(=O)N[C@@H](COCc1ccccc1)C(=O)N[C@@H](CO)[C@H](O)[C@@H]1C[C@@H]1C(=O)NC1CCCCC1
[1]
  Potency: inconclusive: 20.6 µM [inhibitor, single point]

## O=C(NCC1CC1)Nc1ccc(Cl)cc1
[1]
  Potency: inactive

## COc1ccc(C(=O)CSc2c(C(C)C)cnc3c2c(=O)n(C)c(=O)n3C)cc1
[1]
  Potency: active: 16.4 µM

## CCCN(Cc1ccccc1)C(=S)Nc1cccc(C)c1C
[1]
  Potency: inconclusive: 18.4 µM [inhibitor, single point]

## CCc1ccc(-c2nc3c(=O)n(C)c(=O)nc-3n(CC)n2)cc1
[1]
  Potency: active: 2.82 µM

## O=C(NCCNc1ccc([N+](=O)[O-])cc1)c1cccc2c(Br)cccc12
[1]
  Potency: inconclusive: 29.1 µM [inhibitor, single point]

## C[C@@H]1CNC(=O)c2c(C(=O)N[C@@H](Cc3c[nH]c4ccccc34)C(=O)OC(C)(C)C)ncn21
[1]
  Potency: inconclusive: 11.6 µM [inhibitor, partial curve]

## CCN(CC)C(=O)[C@H]1C[C@H](CC(=O)NCCc2ccccn2)C(=O)N2CCc3c([nH]c4cc(CCC(=O)N(C)C)ccc34)[C@]12C
[1]
  Potency: inactive

## O=C(CN1CCN(c2ccccc2)CC1)N1CCN(c2ccccc2)CC1
[1]
  Potency: inconclusive: 18.4 µM [inhibitor, partial curve]

## Nc1nonc1-n1nnc(C(=O)N/N=C/c2ccc(OCc3ccc(F)cc3)cc2)c1COc1ccccc1
[1]
  Potency: inconclusive: 25.9 µM [inhibitor, single point]

## Cc1cccc(N2CCN(c3cccc(C)c3)C2c2cccnc2)c1
[1]
  Potency: inconclusive: 10.3 µM [inhibitor, partial curve]

## Cc1cc(C)c(NC(=S)NC(=O)c2ccc(-c3ccccc3)cc2)c(C)c1
[1]
  Potency: inconclusive: 23.1 µM [inhibitor, single point]

## COc1ccc(NC2=Nc3ccccc3N3C2=Nc2c(c(C)nn2-c2ccc(C)cc2)C3c2cccnc2)cc1 (stereo not given)
[1]
  Potency: active: 20.6 µM

## Cc1ccc2nc(N(Cc3cccnc3)C(=O)CCS(=O)(=O)c3ccccc3)sc2c1
[1]
  Potency: inconclusive: 29.1 µM [inhibitor, single point]

## CCN1CCN(Cc2ccc(NC(=O)c3ccc(C)c(NC(=O)C4=NN(c5ccccc5)C(=O)C4)c3)cc2C(F)(F)F)CC1
[1]
  Potency: inconclusive: 23.1 µM [inhibitor, single point]

## COC(=O)C1(C)CCCC2(C)C3CCC(C(C)C)C(CO)C3C(CO)CC12 (stereo not given)
[1]
  Potency: inconclusive: 23.1 µM [inhibitor, single point]

## O=C(c1cccs1)N1N=C(c2ccccc2)CC1c1ccc(O)cc1 (stereo not given)
[1]
  Potency: inconclusive: 14.6 µM [inhibitor, partial curve]

## CC1CCCC(C)N1C(=O)CSc1nnc(COc2ccc(F)cc2)o1 (stereo not given)
[1]
  Potency: inconclusive: 7.31 µM [inhibitor, partial curve]

## c1cc(-c2sc(-c3ccncc3)c(-c3ccncc3)c2-c2ccncc2)ccn1
[1]
  Potency: inconclusive: 5.8 µM [inhibitor, partial curve, poor fit]

## Cc1ncsc1C(=O)NCc1ccc(N2CCCC2=O)cc1
[1]
  Potency: inconclusive: 29.1 µM [inhibitor, single point]

## COc1cc(OC)c(OC)cc1/C=N/NC(=O)c1ccc(=O)n(C)c1
[1]
  Potency: inactive

## O=C(CC(C(=O)NCc1ccccc1)c1nc2ccccc2c(=O)[nH]1)NCc1ccccc1 (stereo not given)
[1]
  Potency: inconclusive: 29.1 µM [inhibitor, single point]

## COc1ccc(C(C)NC(=O)C23CC4CC(CC(C4)C2)C3)cc1 (stereo not given)
[1]
  Potency: inconclusive: 29.1 µM [inhibitor, single point]

## Cc1sc(N=Nc2ccc(N(C)C)cc2)[n+]([O-])c1C
[1]
  Potency: inconclusive: 10.3 µM [inhibitor, single point]

## O=C(NC(c1ccc(F)cc1)c1ccc2ccccc2n1)C1CCN(Cc2ccc(Oc3ccccc3)cc2)CC1 (stereo not given)
[1]
  Potency: inconclusive: 25.9 µM [inhibitor, single point]

## CCn1cc(CN2CCN(CC(C)(C)C)C(CCO)C2)c2ccccc21 (stereo not given)
[1]
  Potency: inconclusive: 29.1 µM [inhibitor, single point]

## CN(C)CCCn1c(=O)n(CCc2ccccc2)c(=O)c2c3c(sc21)CCCCC3
[1]
  Potency: inconclusive: 23.1 µM [inhibitor, single point]

## O=C(c1ccc(Cl)cc1)N1CCCC(C(=O)N2CCN(c3ccccc3)CC2)C1 (stereo not given)
[1]
  Potency: inactive

## CCOc1ccc(C(=O)NCC(=O)N2CCN(c3ccc(C(F)(F)F)cn3)CC2)cc1
[1]
  Potency: inconclusive: 5.17 µM [inhibitor, full curve]

## Cc1ccc(C2CC(=O)C=C(NCC(C)C)C2)cc1 (stereo not given)
[1]
  Potency: inconclusive: 29.1 µM [inhibitor, single point]

## COc1cccc(NC(=O)CSc2nnc(-c3ccoc3C)n2-c2ccccc2)c1
[1]
  Potency: inconclusive: 29.1 µM [inhibitor, single point]

## Cc1cc(CNC(=O)Cn2cc([N+](=O)[O-])cn2)c2ccccc2n1
[1]
  Potency: inconclusive: 23.1 µM [inhibitor, single point]

## CC(C)Cc1nc(Nc2ccc(S(=O)(=O)N3CCCC3)cc2)c2nnn(Cc3ccccc3)c2n1
[1]
  Potency: inconclusive: 29.1 µM [inhibitor, single point]

## Cc1c(NC(=O)c2ccc(S(=O)(=O)N3CCOCC3)cc2)cccc1[N+](=O)[O-]
[1]
  Potency: inactive

## Cc1ccccc1-c1cc2nc(NCCN3CCCC3)n(C)c(=O)c2s1
[1]
  Potency: inconclusive: 18.4 µM [inhibitor, partial curve]

## CCCCN(CC)CCCNC(=O)c1cc2c(=O)[nH]c3ccccc3c2s1
[1]
  Potency: inconclusive: 29.1 µM [inhibitor, single point]

## Cc1cccc(CNc2ncnc3[nH]ncc23)c1
[1]
  Potency: inconclusive: 29.1 µM [inhibitor, single point]

## CC(C)(CO)NC(=O)c1cnn(-c2nccc(-c3ccc4c(c3)OCO4)n2)c1C1CC1
[1]
  Potency: inconclusive: 23.1 µM [inhibitor, single point]

## Cc1cc(C)cc(NC(=O)CN2C(=O)c3ccccc3Sc3ncccc32)c1
[1]
  Potency: inconclusive: 23.1 µM [inhibitor, single point]

## Cc1cc2nc(-c3ccc(NC(=O)C(C)C)cc3)oc2cc1C
[1]
  Potency: inactive

## CN1C(C(=O)Nc2ccc(F)cc2F)=CC(c2ccc3c(c2)OCO3)=NS1(=O)=O
[1]
  Potency: inconclusive: 29.1 µM [inhibitor, single point]

## O=C(Cc1ccc([N+](=O)[O-])cc1)N1N=C(C2CC2)CC1(O)C(F)(F)F (stereo not given)
[1]
  Potency: active: 25.9 µM

Source: PubChem BioAssay AID686979 (National Center for Advancing Translational Sciences (NCATS), 2013)
